Assay results: paper PMC4234672
No constants are given. Whether binding was seen depends on the method and setting. Binding seen in cells or lysates may run through a third protein. Some entries that bind do so weakly or less than the wild type.

The chains behind the UniProt entries cited, without tags or fusion partners.
UniProt Q91YI4: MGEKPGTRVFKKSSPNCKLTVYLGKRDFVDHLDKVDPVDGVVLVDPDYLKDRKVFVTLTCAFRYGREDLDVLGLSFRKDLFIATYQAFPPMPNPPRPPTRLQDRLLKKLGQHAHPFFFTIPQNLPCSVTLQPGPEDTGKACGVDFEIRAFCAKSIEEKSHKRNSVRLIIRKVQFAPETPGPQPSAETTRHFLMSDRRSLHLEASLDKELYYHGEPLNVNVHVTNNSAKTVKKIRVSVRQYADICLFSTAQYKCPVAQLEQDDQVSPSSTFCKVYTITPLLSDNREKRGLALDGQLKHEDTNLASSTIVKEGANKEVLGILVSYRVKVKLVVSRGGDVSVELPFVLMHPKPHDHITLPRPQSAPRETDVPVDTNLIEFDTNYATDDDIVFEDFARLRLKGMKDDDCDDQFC
UniProt P29066: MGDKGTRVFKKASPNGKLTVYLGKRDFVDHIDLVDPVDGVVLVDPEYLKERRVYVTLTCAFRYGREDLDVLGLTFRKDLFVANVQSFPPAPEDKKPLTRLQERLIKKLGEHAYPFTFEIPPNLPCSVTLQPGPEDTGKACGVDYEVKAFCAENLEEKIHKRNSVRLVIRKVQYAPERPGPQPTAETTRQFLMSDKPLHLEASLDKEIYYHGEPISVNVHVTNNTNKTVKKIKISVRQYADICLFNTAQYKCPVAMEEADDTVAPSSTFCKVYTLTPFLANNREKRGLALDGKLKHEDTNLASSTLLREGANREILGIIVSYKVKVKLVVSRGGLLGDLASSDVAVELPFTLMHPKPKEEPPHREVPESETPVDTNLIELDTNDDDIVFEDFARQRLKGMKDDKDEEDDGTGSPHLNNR

Experiments:
[1] = biological target: T1, mouse melanopsin-1D4 (mouse) (UniProt Q9QXZ9); test: cross-linking + co-IP; β-arrestin stable HEK293 lines transfected with melanopsin-1D4 or phosphonull-1D4; 20 µM 9-cis retinal 1 h in the dark; light-exposed (bright white light, 30 min, 20°C) or dark-adapted; DSP cross-linking in the cells; solubilised in PBS with 1% dodecyl maltoside; 1D4 sepharose beads overnight 4°C; eluted with 50 mM DTT; blots for β-arrestin 1 and β-arrestin 2
T1 sequence: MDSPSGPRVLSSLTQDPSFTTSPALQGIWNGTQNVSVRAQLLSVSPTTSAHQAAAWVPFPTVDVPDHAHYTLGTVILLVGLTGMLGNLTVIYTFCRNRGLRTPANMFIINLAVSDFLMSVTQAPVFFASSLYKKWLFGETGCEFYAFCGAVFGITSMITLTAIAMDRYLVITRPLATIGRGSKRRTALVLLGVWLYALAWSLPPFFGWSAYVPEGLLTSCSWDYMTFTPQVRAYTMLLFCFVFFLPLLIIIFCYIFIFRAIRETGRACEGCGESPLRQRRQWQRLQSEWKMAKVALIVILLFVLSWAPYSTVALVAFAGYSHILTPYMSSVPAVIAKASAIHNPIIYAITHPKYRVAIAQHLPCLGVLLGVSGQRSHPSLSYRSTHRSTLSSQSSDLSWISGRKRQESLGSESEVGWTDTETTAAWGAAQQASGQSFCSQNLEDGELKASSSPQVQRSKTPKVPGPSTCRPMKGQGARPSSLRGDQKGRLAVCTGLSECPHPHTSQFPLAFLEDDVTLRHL

mouse melanopsin (mouse) [2] = biological target: T2, mouse melanopsin (mouse) (UniProt Q9QXZ9); test: proximity ligation; β-arrestin stable HEK293 lines transfected with melanopsin or phosphonull melanopsin; 9-cis retinal; 10 min bright broad spectrum light (5000 lux), then fixed with 4% PFA; Duolink with anti-melanopsin (C-terminal) and anti-β-arrestin 1 or 2
T2 sequence: T1 sequence

mouse melanopsin (mouse) [3] = biological target: T2, mouse melanopsin (mouse); test: condition: only in the dark (cells fixed without light exposure); proximity ligation; β-arrestin stable HEK293 lines transfected with melanopsin; 9-cis retinal; fixed immediately in the dark with 4% PFA; Duolink with anti-melanopsin (C-terminal) and anti-β-arrestin 1 or 2
[4] = biological target: T3, melanopsin (endogenous, mouse retina) (mouse (endogenous in C57BL/6 retina)) (UniProt Q9QXZ9); test: proximity ligation; dark-adapted fixed retinal sections of C57BL/6 mice; Duolink with anti-melanopsin (C-terminal) and anti-β-arrestin 1 or 2
T3 sequence: T1 sequence

[5] = biological target: T3, melanopsin (endogenous, mouse retina) (mouse (endogenous in C57BL/6 retina)); test: proximity ligation; light-exposed fixed retinal sections of C57BL/6 mice; Duolink with anti-melanopsin (C-terminal) and anti-β-arrestin 1 or 2

| binding [1] | binding (mouse melanopsin (mouse) [2]) | binding (mouse melanopsin (mouse) [3]) | binding [5] | Substance | binding [4] |
| --- | --- | --- | --- | --- | --- |
| binds | binds | no binding | – | mouse β-arrestin 2 (from UniProt Q91YI4 1-410) | – |
| binds | binds | no binding | – | rat β-arrestin 1 (from UniProt P29066 1-418) | – |
| – | – | – | binds | β-arrestin 2 (endogenous, mouse retina) (from UniProt Q91YI4 1-410) | no binding (condition: dark-adapted retinas) |
